The values that follow come from the supplement of paper PMC7125110.

The labels stand for the following.
B1: glmS ribozyme (parent)
chain: AUAAAAGCGCCAGAACUACAGAAAUGUAGUUGACGAGGAGGAGGUUUAUCGAAUUUUCGGCGGAUGCCUCCAAA

Common to all, as to settings: with glucosamine-6-phosphate
Data set [1] covers variants of B1. Kind of data set: self-cleavage kobs at 640 uM GlcN6P; higher = faster cleavage; RNA array. Put shortly:
(§1)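 Weighted Michaelis–Menten fits across concentrations supplied kcat and KM, based on kobs from one- or two-exponential decay fits to normalised per-tile medians. The data came from barcoded ribozyme variants transcribed in situ by E. coli RNA polymerase on sequenced MiSeq chips and tracked at 37 °C by a hybridised Cy3 probe. Glucosamine-6-phosphate (40 μM to 10 mM) in HEPES/KCl/Mg(OAc)2 buffer was flowed in.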

Variants of B1 are the subject of data set [2]. Briefly: self-cleavage kobs at 2500 uM GlcN6P; higher = faster cleavage; RNA array. Put shortly: as §1
In data set [3] the parent is B1. Kind of data set: self-cleavage kobs at 160 uM GlcN6P; higher = faster cleavage; RNA array. Put shortly:
as §1

The variants in data set [4] derive from B1. Kind of data set: self-cleavage kobs at 10000 uM GlcN6P; higher = faster cleavage; RNA array. Put shortly: as §1

This sample is rich in variants without activity.

Take AUAAAAGUGCUAGAACUACAGAAAUGUAUUUGACGAGGAGGGGGUUUAUCGAAUUUUCGCCGGAUGCCUCCAAA [C8U C11U G29U A42G G60C]: the “self-cleavage kobs at 640 uM GlcN6P” value in data set [1] was below 1e-05 s⁻¹. The “self-cleavage kobs at 2500 uM GlcN6P” value in data set [2] is below 1e-05 s⁻¹.
Turning to AUAAAAGUGUCAGAAUUACAGAAAUGUAGUUGACGAGGAGGAUGUUUAUCGAAUUUUCGGCGGAUGCCUCCAAA [C8U C10U C16U G43U], the “self-cleavage kobs at 640 uM GlcN6P” value in data set [1] is below 1e-05 s⁻¹. The “self-cleavage kobs at 160 uM GlcN6P” value in data set [3] was below 1e-05 s⁻¹. Further, the “self-cleavage kobs at 2500 uM GlcN6P” value in data set [2] is below 1e-05 s⁻¹.
Consider AUAAAAGUGCCAGAACUACAGAAAUGUAGUUGACGAGGAGGCGGUUUAUCGAAUUUUCGGCUGAUGCCUCGAAA [C8U A42C G62U C71G], for which the “self-cleavage kobs at 640 uM GlcN6P” value in data set [1] was below 1e-05 s⁻¹. For the same variant, in data set [2], the “self-cleavage kobs at 2500 uM GlcN6P” value was below 1e-05 s⁻¹.
As for AUAAAAGUGCCAGAACUACAGAAAUGUAGUUGCCGUGGAGGAGGUUUAUCGAUUUUUCGGCGGAUGCCUCCAAA [C8U A33C A36U A53U], the “self-cleavage kobs at 640 uM GlcN6P” value in data set [1] is below 1e-05 s⁻¹. Moreover, the “self-cleavage kobs at 2500 uM GlcN6P” value in data set [2] was below 1e-05 s⁻¹.
As for AUAAAAGUGCCAGAACUACAGAAAUGUAGUUGACGAGGAGGAGGUUUAUCGAAUUUUAGGCGGACGCCUCCAAA [C8U C58A U65C], the “self-cleavage kobs at 640 uM GlcN6P” value in data set [1] was below 1e-05 s⁻¹.
As for AUAAAAGCCCCAGAGCUACAGAAAUGUAGUUGACGAGGAGGAGGUUUAUCGAAUUUUCGGCGGAUGCCUCCAAA [G9C A15G], the “self-cleavage kobs at 640 uM GlcN6P” value in data set [1] was below 1e-05 s⁻¹. For the same variant, the “self-cleavage kobs at 160 uM GlcN6P” value in data set [3] was below 1e-05 s⁻¹. In addition, in data set [2], the “self-cleavage kobs at 2500 uM GlcN6P” value was below 1e-05 s⁻¹. Also, the “self-cleavage kobs at 10000 uM GlcN6P” value in data set [4] was below 1e-05 s⁻¹.
As to AUAAAAGCACCAGAACUACAGAAAUGUAGUUGACGCGGAGUAGGUUUAUCGAAUUUUCGGCGGGUGCCUUCAAA [G9A A36C G41U A64G C70U], the “self-cleavage kobs at 640 uM GlcN6P” value in data set [1] is below 1e-05 s⁻¹. In data set [3], the “self-cleavage kobs at 160 uM GlcN6P” value is below 1e-05 s⁻¹. Moreover, the “self-cleavage kobs at 2500 uM GlcN6P” value in data set [2] was below 1e-05 s⁻¹. Also, the “self-cleavage kobs at 10000 uM GlcN6P” value in data set [4] is below 1e-05 s⁻¹.
Turning to AUAAAAGUGCCAGAACUACAGAAAUGUAGUUGACGAGGAGGAGGUUUAUCGAAUUUUCCGCGGAUGGCUCCAAA [C8U G59C C67G], the “self-cleavage kobs at 640 uM GlcN6P” value in data set [1] is below 1e-05 s⁻¹. Also, in data set [3], the “self-cleavage kobs at 160 uM GlcN6P” value is below 1e-05 s⁻¹. In addition, the “self-cleavage kobs at 2500 uM GlcN6P” value in data set [2] was below 1e-05 s⁻¹.
For AUAAAAGCACCAGAACUACAGAAAUGUAGUUGACGAGGAGGAGGUUUAUCGAAUUUUCGGCGGAUCCCUCCAAA [G9A G66C], the “self-cleavage kobs at 640 uM GlcN6P” value in data set [1] was below 1e-05 s⁻¹. Also, the “self-cleavage kobs at 160 uM GlcN6P” value in data set [3] is below 1e-05 s⁻¹. The “self-cleavage kobs at 2500 uM GlcN6P” value in data set [2] is below 1e-05 s⁻¹.
AUAAAAGCACCAGAACUACAGAAAUGUAGUAGACGAGGAGGAGGUUUAUCGAAUUUUCGGCAGAUGCCUCCAAA [G9A U31A G62A]: the “self-cleavage kobs at 640 uM GlcN6P” value in data set [1] is below 1e-05 s⁻¹. In addition, in data set [3], the “self-cleavage kobs at 160 uM GlcN6P” value was below 1e-05 s⁻¹. The “self-cleavage kobs at 2500 uM GlcN6P” value in data set [2] was below 1e-05 s⁻¹.
With AUAAAAGUGCCAGAUCUACAGAAAUGUAGUUGACGAGGAGGAGGUUUAUCGAAUUUUCGUCCGAUGCGUCCAAA [C8U A15U G60U G62C C68G], the “self-cleavage kobs at 640 uM GlcN6P” value in data set [1] is below 1e-05 s⁻¹.
Consider AUAAAAGGGCCAGAACUACAGAAAUGUAGUUGACGAGGAGGAGGUUUAUCGAAUUUCCGGCUGAUGCCUCCAAA [C8G U57C G62U], for which the “self-cleavage kobs at 640 uM GlcN6P” value in data set [1] was below 1e-05 s⁻¹. Further, the “self-cleavage kobs at 160 uM GlcN6P” value in data set [3] is below 1e-05 s⁻¹. For the same variant, in data set [2], the “self-cleavage kobs at 2500 uM GlcN6P” value was below 1e-05 s⁻¹.
For the variant AUAAAAGCACCAGAACUACAGAAAUGUAGUUGACGAGGAGGAGGUUUAGCGAAUUUUCGGCGGAUGCCCCCAAA [G9A U49G U69C], the “self-cleavage kobs at 640 uM GlcN6P” value in data set [1] was below 1e-05 s⁻¹. Moreover, in data set [2], the “self-cleavage kobs at 2500 uM GlcN6P” value is below 1e-05 s⁻¹.
As to AUAAAAGUGCAACAACUACAGAAAUGUAGUUGACGAGGAGGAGGUUUAUCAAAUUUUCCGCGGAUGCCUCCAAA [C8U C11A G13C G51A G59C], the “self-cleavage kobs at 640 uM GlcN6P” value in data set [1] was below 1e-05 s⁻¹. For the same variant, in data set [2], the “self-cleavage kobs at 2500 uM GlcN6P” value was below 1e-05 s⁻¹.
For AUAAAAGUGCCAGAACUACAGAAAUGUAGUGGACGAGGAUGAGGUUUAUCGAAUUUUCGUCGGAUGCCUCCAAA [C8U U31G G40U G60U], the “self-cleavage kobs at 640 uM GlcN6P” value in data set [1] is below 1e-05 s⁻¹. For the same variant, the “self-cleavage kobs at 2500 uM GlcN6P” value in data set [2] was below 1e-05 s⁻¹. For the same variant, the “self-cleavage kobs at 10000 uM GlcN6P” value in data set [4] was below 1e-05 s⁻¹.
